# Assay results reported in PubChem BioAssay AID686970 (National Center for Advancing Translational Sciences (NCATS), 2013).
# Out of some 360,000 compounds screened, about 6,000 (1.7%) were called active. This list was built around the results that the source calls inconclusive (neither active nor inactive); the mix of calls is not that of the screen. The call rests on the fitted dose curve; in most records, active means well fitted cell-killing curve with a large enough effect; inconclusive means small, poorly fitted or top-dose-only effect, or effect the other way; inactive means flat fitted curve, though single readings scatter. Potencies of inconclusive entries are left out as doubtful fits.
# Test: qHTS for induction of synthetic lethality in tumor cells producing 2HG: qHTS for the HT-1080-NT fibrosarcoma cell line;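 further: NT is the 2HG producing partner of a matched IDH1 knockdown line; nearly all actives have a fitted effect of over 55% in size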;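 on activity, negative = less viability: 0% = DMSO-treated cells and -100% = media-only wells without cells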
# Details: HT-1080-NT fibrosarcoma viability, CellTiter-Glo ATP luminescence, 48 h; activity, negative = less viability: at 46.1 µM (top of the series) unless noted
# In short: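 Luminescent CellTiter-Glo readout after 48 hours of compound exposure at 37 degrees C defined viability of HT-1080-NT cells. Activity was normalized to DMSO wells and cell-free media wells; concentration-response curves were fitted and assigned curve classes.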
# Potency means the concentration at half of the fitted maximal effect; tags describe the fitted curve by direction and shape.
Structure (SMILES),"activity, negative = less viability",Potency
COc1ccc(OCCC(=O)OCC(=O)c2ccc[nH]2)cc1,inactive: 7.34%,
COc1ccc(-c2nnc(SCC(=O)Nc3ccc(Cl)cc3)n2C)cc1,inactive: -1.52%,
COc1ccc(-c2noc(CN(C)S(=O)(=O)c3ccccc3)n2)cc1OC,inactive: 9.97%,
Oc1ccc(F)c(CN2CCN(c3ncc(Cc4ccccc4)cn3)CC2)c1,,"inconclusive [cytotoxic, single point]"
OC[C@@H]1CN(Cc2ccc(-c3ccccc3)cc2)C[C@H](n2cnc3c(NCc4ccco4)ncnc32)O1,,active: 20.6 µM
COc1cccc(CC(=O)Nc2nc(C)cs2)c1,inconclusive: 14%,
CCOc1ccc(/C=N/Nc2nc(N3CCCC3)nc(N3CCCC3)n2)cc1OC,,"inconclusive [cytotoxic, single point]"
Cc1sc(NC(=S)NC(=O)c2ccc(C(C)(C)C)cc2)c(C#N)c1C,,"inconclusive [cytotoxic, single point]"
CCN(CC)C(=O)CSc1nnc2nnc3cc(Cl)ccc3n12,,"inconclusive [cytotoxic, single point]"
CCN1CC(CN(C)Cc2nc(-c3ccc(C(F)(F)F)cc3)no2)CC1=O (stereo not drawn),,"inconclusive [cytotoxic, single point]"
Cc1c(N(C)S(=O)(=O)c2cc(C(=O)NCC3CCCO3)ccc2Cl)c(=O)n(-c2ccccc2)n1C (stereo not drawn),inactive: 17.3%,
Cc1ccc(N2C(=O)CSC2c2cccnc2)c(Cl)c1 (stereo not drawn),,"inconclusive [cytotoxic, single point]"
C=CCn1c(COc2ccccc2)nnc1SC(C)C(=O)N/N=C/c1cc(Cl)ccc1O (stereo not drawn),,"inconclusive [cytotoxic, partial curve]"
Cc1ccc(NC(=O)c2sccc2C)nc1,,"inconclusive [cytotoxic, single point]"
COc1cc(/C=C(/C#N)C(=O)Nc2ccccc2)c(Br)cc1OCc1ccc(C(=O)O)cc1,,"inconclusive [cytotoxic, single point]"
COc1cc(C2C3=C(Nc4ncnn42)c2ccccc2CC3)cc(OC)c1OC (stereo not drawn),,active: 0.731 µM
COc1ccc(CCNC(=O)Cc2c(Cl)cccc2Cl)cc1,inactive: 0.714%,
CCCNC(=O)C(Cc1cccc(C#N)c1)NC(=O)c1ccc(C#N)cc1 (stereo not drawn),inactive: -5.46%,
CCOc1ccc(S(=O)(=O)Oc2ccc3ccccc3c2)cc1,inactive: -7.2%,

Structure (SMILES),"activity, negative = less viability",Potency
N=c1nc(N)nc2n1NC(c1ccc(F)cc1)=CS2,,"inconclusive [cytotoxic, single point]"
CCCCCCSc1cc(-c2nc3ccc(Cl)cn3c2NC2CCCCC2)ccc1OC,inactive: 14.4%,
Fc1ccc(Nc2nnc(C(F)(F)F)s2)cc1Cl,,"inconclusive [cytotoxic, single point]"
COc1cccc(OC)c1-c1nn(-c2ncc(C(F)(F)F)cc2Cl)c(=O)o1,,"inconclusive [rising, single point]"
COc1ccc(N=C2C(=O)Nc3ccc(C)c(Br)c32)cc1,,"inconclusive [cytotoxic, partial curve]"
COC(=O)[C@@]1(Cc2ccc(OC)cc2)[C@@H]2C(=CC(=O)[C@H]2CC(=O)C(=O)N(C)C)CN1C(=O)c1ccccc1,,"inconclusive [cytotoxic, single point]"
Cc1nn(C(C)C(=O)NCCc2ccco2)c(=O)c2nn(-c3ccccc3)c(C)c12 (stereo not drawn),inactive: 1.81%,
CN(C)S(=O)(=O)c1cc(NC(=O)CSc2nn(-c3ccc(Cl)cc3)c(=S)s2)ccc1Cl,,"inconclusive [cytotoxic, single point]"
CCCn1nc(C(=O)OCC(=O)c2ccccc2)c2ccccc2c1=O,,"inconclusive [rising, single point]"
CC(C)C[C@H]1CNC(=S)N1CC1CCCN1C[C@H](Cc1ccc(O)cc1)N1C[C@H](Cc2ccccc2)N(CC2CCCCC2)C1=S (stereo partly drawn),inconclusive: -10.8% [cytotoxic],
COc1cccc(CN(C)C(=O)c2ccc(Oc3ccccc3)cc2)c1OC,,"inconclusive [cytotoxic, partial curve, poor fit]"
COC(=O)Nc1nn(-c2ccc(Cl)cc2)c(=O)c(C#N)c1C,inactive: -1.66%,
Cc1cccc(-c2oc3ccccc3c2C#CCCO)c1,inactive: 7.11%,
CCCCC(=O)N1C/C=C\C(c2ccc(OC)cc2)N(Cc2ccc(F)cc2)C(=O)[C@H]1Cc1ccccc1 (stereo partly drawn),,"inconclusive [cytotoxic, single point]"
CCN(CC)CCCNC(=O)c1cc2c(=O)n(C)c3ccccc3c2n1C,inactive: -15.3%,
O=c1c2cc(Cl)ccc2nc(-c2ccc(Cl)c(Cl)c2)n1O,inactive: 0.705%,
COc1ccc(NC(=O)c2cc(-c3cc(Cl)ccc3OC)n[nH]2)c(OC)c1,,"inconclusive [cytotoxic, single point]"
CCOc1ccc(N(CC(=O)Nc2ccccc2C)S(=O)(=O)c2c(C)noc2C)cc1,,active: 4.61 µM
CC(C)Oc1ccc(CN2CCC2(C)C(=O)NCc2ccc(C(F)(F)F)cc2)cc1 (stereo not drawn),,"inconclusive [cytotoxic, single point]"
